The text below walks through data of PMC4057743.

In the test the target is GST-AtMYB44 (Arabidopsis), Q9FDW1. Put plainly: pull-down; competitive: 5 μg His-RCAR1/PYL9 with 0, 5 or 25 μg His-ABI1 or 25 μg His protein on immobilized GST-AtMYB44 (5 μg); 50 mM Tris-HCl pH 7.5, 100 mM NaCl, 1 mM EDTA, 0.05% β-mercaptoethanol, 0.2% Triton X-100, 10 mM MgCl2; 4 °C, 2 h; 10 μM ABA when indicated; anti-His blot; both purified. The following applies: remark: other sources report otherwise.

Results are given in words; binding and its absence hold for the method and conditions named. Some results given as binding are weak or reduced against the parent protein; the word gives no strength. Where a sequence is shown, tags or fusion partners need not be part of it.

B1: His-RCAR1/PYL9, Q84MC7 1-187 (receptor)
chain: MMDGVEGGTAMYGGLETVQYVRTHHQHLCRENQCTSALVKHIKAPLHLVWSLVRRFDQPQKYKPFVSRCTVIGDPEIGSLREVNVKSGLPATTSTERLELLDDEEHILGIKIIGGDHRLKNYSSILTVHPEIIEGRAGTMVIESFVVDVPQGNTKDETCYFVEALIRCNLKSLADVSERLASQDITQ
With B1, the binding result was “binds”.
